Test results taken from PubChem BioAssay AID588342 (National Center for Advancing Translational Sciences (NCATS), 2011).
“And” between values parts separate entries of the source, which are not always exact repeats. Identical values can stand only once. Hit rate of the full screen: of about 360,000 compounds, about 25,000 (6.9%) were called active. Inconclusive means that the source gave no clear call. Such entries were picked first, then a sample of the others. Calls follow the shape of the dose curve; as a rule, active = well fitted inhibition curve with a large enough effect; inconclusive = small, poorly fitted or top-dose-only effect; inactive = flat fitted curve, though single readings scatter. A potency beside an inconclusive call is a rough fit, not a confirmed value.

target: Luciferin 4-monooxygenase (Photinus pyralis) (UniProt P08659); assay: qHTS profiling assay for firefly luciferase inhibitor/activator using purifed enzyme and Km concentrations of substrates (counterscreen for miR-21 project); conditions: purified FLuc, luminescence inhibition; activity change, negative = inhibition: at 57.5 µM (top of the series); also: nearly all actives have a fitted effect of over 55% in size;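 as to activity change, negative = inhibition: plate controls were vehicle for no effect and reference inhibitor for full effect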
How it was run: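 Purified P. pyralis luciferase (10nM final) with 10uM D-luciferin and 10uM ATP (Km levels) in 50mM Tris acetate pH 7.5, 10mM Mg acetate, 0.01% Tween-20, 0.05% BSA; qHTS 6-point titration, ~60 µM downward; luminescence read.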
Potency is read from the fitted curve at half-maximal effect; tags tell the direction and shape of the fitted curve.

Chain of UniProt P08659 (P08659 whole entry, looked up): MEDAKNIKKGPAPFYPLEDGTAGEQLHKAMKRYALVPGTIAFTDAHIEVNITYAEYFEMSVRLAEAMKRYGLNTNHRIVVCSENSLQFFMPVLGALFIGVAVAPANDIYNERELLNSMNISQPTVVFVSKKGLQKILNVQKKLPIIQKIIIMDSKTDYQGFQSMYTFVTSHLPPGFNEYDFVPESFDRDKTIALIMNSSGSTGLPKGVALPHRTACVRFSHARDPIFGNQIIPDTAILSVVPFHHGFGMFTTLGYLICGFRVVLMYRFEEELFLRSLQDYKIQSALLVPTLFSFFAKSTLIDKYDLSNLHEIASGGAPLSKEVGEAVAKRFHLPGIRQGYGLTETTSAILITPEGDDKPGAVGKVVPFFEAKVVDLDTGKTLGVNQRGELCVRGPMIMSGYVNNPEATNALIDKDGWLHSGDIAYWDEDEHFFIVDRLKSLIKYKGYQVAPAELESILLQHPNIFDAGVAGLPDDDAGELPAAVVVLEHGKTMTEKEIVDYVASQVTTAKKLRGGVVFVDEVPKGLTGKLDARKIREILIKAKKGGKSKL

| Structure (SMILES) | activity change, negative = inhibition | Potency |
| --- | --- | --- |
| Cc1ccc(-c2nc(SCC(=O)N(C)c3c(N)n(Cc4ccccc4)c(=O)[nH]c3=O)n[nH]2)cc1 | inactive: -18.2% | – |
| O=C(Cc1ccc(Cl)cc1)SCc1ccccc1 | – | inconclusive: 13.5 µM [inhibitor, partial curve, poor fit] |
| Clc1cccc(N/N=C/c2ccc(N3CCOCC3)s2)c1 | – | active: 9.53 µM |
| Cn1c(SCc2ccc(F)cc2)nnc1-c1cccs1 | – | active: 19 µM |
| O=C(Nc1nnc(S(=O)(=O)N2CCN(c3ccc(F)cc3)CC2)s1)c1ccccc1 | – | inconclusive: 6.75 µM [inhibitor, partial curve] |
| O=C(/C=C/c1ccccc1)n1cnnc1SC/C=C/c1ccccc1 | – | inconclusive: 30.1 µM [inhibitor, single point] |
| Cc1ccc(N2C(=O)[C@@H]3[C@H](C2=O)[C@H]2C=CC=NN2[C@@H]3C(=O)Nc2ccccc2)cc1 | – | inconclusive: 37.9 µM [inhibitor, partial curve, poor fit] |
| CNc1nnc(-c2ccc(N(C)C)cc2)s1 | – | active: 2.13 µM |
| CCC(CC)C(=O)Nc1ccc(-c2cn3cccnc3n2)cc1 | – | inconclusive: 33.8 µM [inhibitor, partial curve, poor fit] and inconclusive: 16.9 µM [inhibitor, partial curve] |
| Cc1cccc(-c2nc3scc(CCNC(=O)c4ccc(Br)o4)n3n2)c1 | inactive: -6% | – |
| N=C1/C(=C\c2ccc(OC(=O)c3ccc(F)cc3)cc2)C(=O)N=C2SC(N3CCOCC3)=NN12 | – | inconclusive: 15.1 µM [inhibitor, partial curve, poor fit] |
| N#Cc1nc(COc2ccc(Cl)cc2Cl)oc1N1CCOCC1 | – | inconclusive: 26.9 µM [inhibitor, single point] |
| Cc1ccc(OCC(=O)Nc2ccc(S(=O)(=O)Nc3ncccn3)cc2)c(C(C)(C)C)c1 | – | inconclusive: 6.75 µM [inhibitor, partial curve, poor fit] |
| COc1ccc(C(=O)NCc2nnc(SCC(=O)Nc3ccccc3OC)n2C)cc1 | – | active: 15.1 µM |
| Cc1ccc(OCc2cc(C(=O)N3CCCC3)no2)cn1 | – | inconclusive: 33.8 µM [inhibitor, partial curve, poor fit] |
| Cn1c2cc([N+](=O)[O-])sc2c2cnn(Cc3ccccc3F)c(=O)c21 | – | inconclusive: 21.3 µM [inhibitor, single point] |
| O=C(c1ccccc1)c1nc2c(n1O)CCCCC2 | – | inconclusive: 42.6 µM [inhibitor, partial curve, poor fit] |
| COc1cccc(C(=O)Oc2ccc(/C=N/Nc3ccc(C(=O)O)cc3)cc2OC)c1 | – | active: 23.9 µM |
| O=C(Nc1cc(NC(=O)c2ccccc2Cl)ccc1Cl)c1ccccc1 | – | active: 12 µM |
| Cc1ccc(NC(=O)c2ccc(Cl)c(N3C(=O)CCC3=O)c2)cc1 | – | inconclusive: 26.9 µM [inhibitor, partial curve, poor fit] |
| CC(OC(=O)/C=C/c1ccco1)C(=O)NC1CCCCC1C (stereo not drawn) | inactive: -1.09% | – |
| COc1ccc(CNC(=O)c2ccc(Cn3c(=O)c4cccn4c4cccnc43)cc2)cc1OC | inactive: -10.7% | – |
| O=C(CSc1ccc(-c2ccccn2)nn1)N1CCCc2ccccc21 | – | inconclusive: 37.9 µM [inhibitor, partial curve, poor fit] |

| Structure (SMILES) | activity change, negative = inhibition | Potency |
| --- | --- | --- |
| Cc1ccc(-c2cc(C(=O)N3CCN(c4ccccc4O)CC3)c3ccccc3n2)o1 | – | active: 0.757 µM |
| O=C(Nc1ccc(F)cc1)c1cccn1-c1nnc(N2CCCCC2)s1 | – | inconclusive: 21.3 µM [inhibitor, partial curve, poor fit] |
| CCOc1ccc(/C(O)=C2\C(=O)C(=O)N(c3ccc(OC)cc3)C2c2ccccc2[N+](=O)[O-])cc1 (stereo not drawn) | – | active: 8.49 µM |
| COc1ccc(OC)c(N)c1 | inactive: 1.16% | – |
| Clc1cccc(Nc2ncnc3ccc(Br)cc23)c1 | inactive: -8.24% | – |
| O=C(O)CCNc1ccc(NCCC(=O)O)c2c1C(=O)c1ccccc1C2=O | – | inconclusive: 21.3 µM [inhibitor, single point] |
| CC(C)c1ccc(NC(=O)C(c2ccccc2)N2CCOCC2)cc1 (stereo not drawn) | – | inconclusive: 30.1 µM [inhibitor, single point] |
| Cc1ccc(-c2csc(/C(C#N)=C/c3ccccc3Cl)n2)cc1 | – | inconclusive: 8.49 µM [inhibitor, partial curve, poor fit] |
| Cc1cc(=O)c2cc(C(=O)Nc3ccccc3)ccc2[nH]1 | – | inconclusive: 23.9 µM [inhibitor, partial curve, poor fit] |
| N/C(=N\OC(=O)CC1CCCCC1)c1ccc(Br)cc1 | – | inconclusive: 10.7 µM [inhibitor, partial curve] |
| CCCCCCN1C=C/C(=C\C=C(C#N)C#N)c2ccccc21 | – | inconclusive: 19 µM [inhibitor, single point] |
| O=[N+]([O-])c1ccccc1CSc1nc2ccccc2o1 | – | active: 19 µM |
| Oc1ccc(/C=N/N2CCCCC2)c(O)c1O | – | inconclusive: 6.01 µM [inhibitor, full curve] |
| COc1ccc(C(=O)COC(=O)C2CCC(=O)N2)cc1 (stereo not drawn) | – | inconclusive: 37.9 µM [inhibitor, partial curve, poor fit] |
| N#CCSc1nc2c(cc1C#N)CCCCCC2 | – | inconclusive: 21.3 µM [inhibitor, partial curve, poor fit] |
| O=C1Nc2ccccc2S/C1=C/Nc1cccc(Cl)c1 | – | active: 8.49 µM |
| CCc1ccc2nc(N3CCN(C(=O)C(C)(C)C)CC3)sc2c1 | – | active: 15.1 µM |
| COc1ccc(-c2nc(C#N)c(NCCc3ccccc3)o2)cc1 | – | inconclusive: 3.01 µM [inhibitor, full curve] |
| O=C(c1ccccc1)N1CCN(S(=O)(=O)c2cccc(NS(=O)(=O)c3ccccc3)c2)CC1 | – | inconclusive: 26.9 µM [inhibitor, partial curve, poor fit] |
| CCOc1ccc2c(c1)c1nnc(SCC(=O)NC3CC3)nc1n2C | – | inconclusive: 37.9 µM [inhibitor, partial curve, poor fit] |
| Cc1cc2nc(/C=C/c3nc4cc(C)c(C)cc4[nH]3)[nH]c2cc1C | – | inconclusive: 19 µM [inhibitor, partial curve, poor fit] |
| COc1cc(Cl)ccc1OCc1cc(C(=O)N(C)CCc2cnn(C)c2)no1 | – | active: 12 µM |
| CCn1c(SCc2ccccc2Cl)nc(=O)c2c(C(=O)OC)cc(C3CC3)nc21 | – | inconclusive: 16.9 µM [inhibitor, partial curve, poor fit] |

| Structure (SMILES) | activity change, negative = inhibition | Potency |
| --- | --- | --- |
| NS(=O)(=O)c1ccc(CCNCC(=O)NCc2ccccc2Cl)cc1 | inactive: -2.31% | – |
| O=C(CSc1ncn[nH]1)Nc1ccc(Br)cc1F | – | inconclusive: 37.9 µM [inhibitor, partial curve, poor fit] |
| O=C(Nc1ccccc1Cl)Oc1ccc(-c2ccccc2)cc1 | – | inconclusive: 16.9 µM [inhibitor, partial curve] |
| Cc1ccc(-c2noc(-c3ccc(N4CCCCC4)c([N+](=O)[O-])c3)n2)cc1 | – | inconclusive: 26.9 µM [inhibitor, partial curve] |
| O=C(COC(=O)C1CC(=O)N(Cc2ccco2)C1)c1ccc(OC(=O)c2ccccc2)cc1 (stereo not drawn) | – | inconclusive: 26.9 µM [inhibitor, single point] |
| COc1ccc(C(=O)NC(=S)N(C)C2CCCCC2)cc1 | – | inconclusive: 37.9 µM [inhibitor, partial curve, poor fit] |
| Cc1c(Cl)cccc1NC(=O)COC(=O)C12CC3CC(CC(O)(C3)C1)C2 | – | inconclusive: 26.9 µM [inhibitor, partial curve] |
| COc1ccc(/C=C(/C(=O)c2cccs2)N2C=CC=CC2=C(C#N)C#N)cc1 | – | active: 13.5 µM |
| CCCOc1ccc(C(=O)Nc2cc(-c3nc4cc(C)cc(C)c4o3)ccc2C)cc1 | inactive: -5.07% | – |
| Cc1ccc(NC(=O)c2ccc(NS(=O)(=O)c3ccc4[nH]c(=O)[nH]c4c3)cc2)nc1 | – | inconclusive: 16.9 µM [inhibitor, partial curve, poor fit] |
| COc1ccc(NC(=O)c2noc3c2CCC3)cc1 | – | active: 2.69 µM |
| COc1ccc(/C=N/NC(=O)Nc2nonc2N)cc1 | – | inconclusive: 23.9 µM [inhibitor, partial curve] |
| Cc1cccc(Nc2nc(N)c([N+](=O)[O-])c(NCc3ccco3)n2)c1 | – | inconclusive: 37.9 µM [inhibitor, single point] |
| CCc1c(C)sc2c1CCN(C(=O)Nc1ccccc1C(F)(F)F)C2c1ccccc1 (stereo not drawn) | inactive: 1.97% | – |
| COc1cc(C#Cc2c(-c3cncn3C)n(C)c3ccc(-c4ccc5[nH]ccc5c4)cc23)cc(OC)c1 | – | inconclusive: 8.49 µM [inhibitor, single point] |
| COc1ccc(-c2cn3ccccc3n2)cc1 | – | active: 0.757 µM |
| COc1cccc(C2CCCCN2Cc2nc(-c3ccc(C)o3)oc2C)c1 (stereo not drawn) | – | inconclusive: 16.9 µM [inhibitor, partial curve] |
| CCOC(=O)C1CCCN(C(=O)c2cc(-c3ccccc3)nc3ccccc23)C1 (stereo not drawn) | – | inconclusive: 21.3 µM [inhibitor, partial curve] |
| COc1cc(Cl)ccc1OCc1cc(C(=O)N(C)Cc2nnc(C)o2)no1 | – | inconclusive: 23.9 µM [inhibitor, partial curve] |
| C=C(Cl)COc1ccc2c(CCCC)cc(=O)oc2c1 | – | inconclusive: 23.9 µM [inhibitor, partial curve, poor fit] |
| Clc1ccc(-c2nc3cc(CN4CCCCC4)ccc3o2)cc1 | – | active: 10.7 µM |
| COC(=O)c1ccc(COC(=O)c2cccnc2Cl)cc1 | – | inconclusive: 26.9 µM [inhibitor, single point] |
